Test results reported in PubChem BioAssay AID493035 (The Scripps Research Institute Molecular Screening Center, 2011).
The whole screen tested about 2,000 compounds, of which about 45 (2%) were called active.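 How the source made its calls: active means inhibition above the mean of all tested compounds plus 3 SD (cut at about 49% in these data); inactive means the rest.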 This is one part of the list.

Each compound was assayed against Perilipin-5 (Homo sapiens) + 1-acylglycerol-3-phosphate O-acyltransferase ABHD5 (Homo sapiens) (UniProt Q00G26+Q8WTS1) (assay: ABHD5-PLIN5 interaction inhibitors, pilot screen, cell lysate, split luciferase complementation, luminescence, NIH validation set (AID 493035;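 further: 0% = DMSO only wells while the 100% control is not stated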)). Conditions: split G. princeps luciferase complementation, lysates, 4 h; at 7.9 µM, active compounds read high.
UniProt Q00G26, sequence (Q00G26 whole entry, looked up): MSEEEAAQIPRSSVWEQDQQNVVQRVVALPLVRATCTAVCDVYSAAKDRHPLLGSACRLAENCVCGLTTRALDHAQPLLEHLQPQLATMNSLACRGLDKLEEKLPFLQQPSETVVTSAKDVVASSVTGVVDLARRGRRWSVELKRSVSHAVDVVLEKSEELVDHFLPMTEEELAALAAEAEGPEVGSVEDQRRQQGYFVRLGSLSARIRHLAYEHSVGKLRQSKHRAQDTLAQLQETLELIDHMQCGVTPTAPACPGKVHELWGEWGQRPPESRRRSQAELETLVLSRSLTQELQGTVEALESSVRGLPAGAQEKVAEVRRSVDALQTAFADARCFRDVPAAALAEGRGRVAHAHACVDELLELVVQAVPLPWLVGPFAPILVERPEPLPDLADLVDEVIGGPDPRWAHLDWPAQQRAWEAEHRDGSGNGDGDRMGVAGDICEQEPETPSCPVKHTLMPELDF
UniProt Q00G26, sequence (Q8WTS1 whole entry, looked up): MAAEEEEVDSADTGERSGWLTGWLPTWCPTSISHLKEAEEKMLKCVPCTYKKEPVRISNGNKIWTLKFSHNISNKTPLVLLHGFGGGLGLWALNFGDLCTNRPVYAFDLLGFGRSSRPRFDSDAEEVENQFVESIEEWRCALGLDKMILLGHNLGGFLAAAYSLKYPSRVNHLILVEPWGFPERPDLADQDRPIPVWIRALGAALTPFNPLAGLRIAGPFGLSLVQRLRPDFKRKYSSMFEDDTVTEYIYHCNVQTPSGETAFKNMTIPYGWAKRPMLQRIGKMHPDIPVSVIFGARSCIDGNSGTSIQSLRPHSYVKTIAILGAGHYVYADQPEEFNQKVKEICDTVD

| SMILES | inhibition |
| --- | --- |
| C[C@]12CC[C@@H]3c4ccc(O)cc4C(=O)C[C@H]3[C@@H]1CC[C@@H]2O | inactive: 9.16% |
| CC(=O)C1=C(O)C(=O)OC1c1ccc(C)cc1 (configuration not stated) | inactive: -1.46% |
| COc1ccc(OC)c(C(=O)c2coc3ccc(O)cc23)c1 | inactive: -4.23% |
| Cc1nonc1CN(C)C(=O)c1ccc(OC2CCN(C(=O)c3cccnc3)CC2)cc1 | inactive: 2.15% |
| NCCc1ccc(O)c(O)c1 | inactive: -3.33% |
| CC(=O)c1cn(C)c(=O)[nH]c1=O | inactive: -6.98% |
| CC1=CC2(O)OCCN(CCO)C2=CC1=O (configuration not stated) | inactive: -6.75% |
| COc1cccc(N2CC34C=CC(O3)C(C(=O)O)C4C2=O)c1 (configuration not stated) | inactive: -11.6% |
| C[C@H](CS)C(=O)N1CCC[C@H]1C(=O)O | inactive: 0.6% |
| CCCCc1oc2ccccc2c1C(=O)c1cc(I)c(OCCN(CC)CC)c(I)c1 | inactive: -3.91% |
| O=C(O)c1cccnc1 | inactive: -4.22% |
| Cc1cccc(N(C)C(=S)Oc2ccc3ccccc3c2)c1 | inactive: -7.39% |
| COc1ccc(C(=O)Nc2ccccc2C(=O)NC(Cc2c[nH]c3ccccc23)C(=O)O)cc1 (configuration not stated) | inactive: 1.79% |
| O=C(O)c1cc2cc(F)ccc2[nH]1 | inactive: 3.04% |
| NNC(=O)c1ccncc1 | inactive: 1.56% |
| COc1cc(NC(=S)NC(=O)c2cccs2)ccc1NC(=O)C(C)C | inactive: 2.99% |
| CC12CCC(C(=O)N3CCCCC3)([C@H](Br)C1=O)C2(C)C (some centres not stated) | inactive: -4.77% |
| COc1ccccc1OS(=O)(=O)c1ccc(NC(C)=O)cc1 | inactive: -4.94% |
| COc1ccc(C2C3C(C)=NN=C3CC(C)(O)C2C(C)=O)cc1 (configuration not stated) | inactive: -1.5% |
| COc1cccc(OCc2nnc(-c3cccs3)o2)c1 | inactive: 0.28% |
| CC12CCC(C(=O)NCc3ccc4c(c3)OCO4)(CC1=O)C2(C)C (configuration not stated) | inactive: -3.68% |

| SMILES | inhibition |
| --- | --- |
| CC(=O)Nc1ccc(CN2CCN(C3CCCCC3)C(CCO)C2)cc1 (configuration not stated) | inactive: 0.12% |
| CC1(C)O[C@@H]2C[C@H]3[C@@H]4C[C@H](F)C5=CC(=O)CC[C@]5(C)[C@H]4[C@@H](O)C[C@]3(C)[C@]2(C(=O)CO)O1 | inactive: -12.1% |
| COCCCN1C(=O)/C(=C\c2cccs2)C(C(=O)OC)=C1C | inactive: 0.91% |
| CN1C(=O)NC(c2ccc(O)cc2)C2=C1CN(c1cccc3ccccc13)C2=O (configuration not stated) | inactive: -15.2% |
| Cc1ccccc1N1C(N)=NC(N)=NC1(C)C | inactive: -6.03% |
| Cc1nc2c(c3c1[nH]c1ccccc13)C(=O)CC(C)(C)C2 | inactive: -10.6% |
| CN(C)c1cc(NC(=O)CN2CCOCC2)c2ccccc2n1 | inactive: -7.9% |
| CC(C)c1cc(=O)oc2c3c4c(cc12)CCCN4CCC3 | inactive: 2.85% |
| CSCC[C@H](NC(=O)OC(C)(C)C)C(=O)N1CCC(C(=O)N[C@@H](C)C(=O)O)CC1 | inactive: -0.91% |
| COc1cc2c(cc1O)CCN(C(=O)c1ccco1)C2C (configuration not stated) | inactive: 1.59% |
| COc1ccc(/C=C2\CC/C(=C\c3ccc(OC)c(OC)c3)C2=O)cc1OC | active: 72.8% |
| CCC(C)NCCOc1ccccc1C (configuration not stated) | inactive: -2.83% |
| COc1ccc(NC(=O)C2OC3OC(C)(C)OC3C3OC(C)(C)OC23)cc1 (configuration not stated) | inactive: 3.54% |
| CC(=O)Oc1ccc(C(=O)O)cc1OC(C)=O | inactive: 4.2% |
| CCOC(=O)C1=C(C)N[C@@]2(O)c3ccccc3C(=O)[C@@]12O | inactive: 10.3% |
| O=c1c2ccccc2nc2n1CCCN2 | inactive: -0.84% |
| Cn1cc(CN2CCC(C(=O)N3CCCCC3)CC2)c(-c2ccccc2F)n1 | inactive: -1.57% |
| CCOc1ccc(CC2CCC(=O)NC2=O)cc1 (configuration not stated) | inactive: 0.69% |
| O=C(COc1cc(O)c2c(=O)c3ccccc3oc2c1)OCc1ccccc1 | inactive: 10% |
| Cc1ccc(C2=NOC(=O)/C2=C\C=C\c2ccccc2)cc1 | active: 94.4% |
| CC(C)(C)OC(=O)COc1cc(OCC(=O)OC(C)(C)C)c2c(=O)cc(-c3ccccc3)oc2c1 | inactive: 27.6% |

| SMILES | inhibition |
| --- | --- |
| CC(C)=CCCC1=CCC2C(=O)NNC(=O)C2C1 (configuration not stated) | inactive: 7.34% |
| COc1ccc(C(=O)Nc2nc3ccccc3c(=O)[nH]2)cc1 | inactive: 0.27% |
| CC1(C)c2ccccc2N2CC(=O)N(CC(N)=O)C21C (configuration not stated) | inactive: 4.9% |
| COCC(C)NC(=O)c1ccc(CN2CCc3ccccc3C2)cc1 (configuration not stated) | inactive: -10.8% |
| CC(C)C(CCN1C(=O)CCC1=O)C1CCOC(C)(C)C1 (configuration not stated) | inactive: 2.17% |
| C[C@@H]1CCC[C@H](C)N1NC(=O)c1ccc(Cl)c(S(N)(=O)=O)c1 | inactive: -10% |
| Cc1ccc2[nH]c3c(=O)n(CCCN4CCN(C)CC4)cnc3c2c1 | inactive: -5.12% |
| Cc1ccc2c(c1)c1c3n2CCCN(Cc2ccccc2)C3CCC1 (configuration not stated) | inactive: -6.95% |
| CC(C)[C@H](NC(=O)[C@@H]1CSCN1C(=O)OC(C)(C)C)C(=O)NCC1CCC(C(=O)O)CC1 (some centres not stated) | inactive: -18.6% |
| COc1ccc(C(=O)[C@H]2[C@H]3C(=O)N(c4ccccc4)C(=O)[C@H]3C3C=CC=NN32)cc1 (some centres not stated) | inactive: 8.24% |
| CCc1c(C)c2ccc(OCC(=O)OC(C)C)c(C)c2oc1=O | inactive: -3.95% |
| COc1cc(/C=C/C(=O)N2CCCC2)cc(OC)c1OC | inactive: 0.09% |
| CC(=O)C1=C(O)C(=O)N(Cc2cccnc2)C1c1ccc(C(C)C)cc1 (configuration not stated) | inactive: 13.5% |
| COc1cc2cc(C)nc(Cc3cccc4ccccc34)c2cc1OC | inactive: 11.8% |
| CCN(CC)CCNC(=O)c1ccc(N)cc1 | inactive: -1.63% |
| OC[C@@H](O)[C@@H](O[C@H]1O[C@H](CO)[C@@H](O)[C@H](O)[C@H]1O)[C@H](O)[C@@H](O)CO | inactive: -8.59% |
| C[N+](C)(C)CCCC(=O)c1ccc2c(c1)OCO2 | inactive: 11.7% |
| O=C(CCCN1C(=O)/C(=C\c2cccc(Br)c2)SC1=S)Nc1cccnc1 | inactive: 28.1% |
| COC(=O)c1ccccc1OCCOCCOc1cccc2ccc(C)nc12 | inactive: -6.99% |
| COC(=O)c1ccc(CC(=O)c2ccc(O)cc2O)o1 | inactive: 25.6% |
